test system: MLKL phosphorylation, HT29-L23 human colorectal adenocarcinoma cells; test: cells; conditions: read-out: pMLKL HCS Cell Assay (IC50, uM)

Going from COc1ncc(-c2cc(C(F)(F)F)c3c(N)ncnn23)cc1C(=O)NC1CN(C(C)c2c(F)cc(F)cc2F)C[C@@H]1F (stereo partly drawn) [Example 1390, 5-[4-amino-5-(trifluoromethyl)-pyrrolo[2,1-f][1,2,4]triazin-7-yl]-N-[(3R,4S)-4-fluoro-1-[1-(2,4,6-trifluorophenyl)-ethyl]pyrrolidin-3-yl]-2-methoxypyridine-3-carbox-amide] to COc1ncc(-c2cc(C(F)(F)F)c3c(N)ncnn23)cc1C(=O)N[C@@H]1CN(C(=O)O[C@@H](C)CO)C[C@@H]1F [Example 1449, (2S)-1-hydroxypropan-2-yl (3R,4S)-3-{5-[4-amino-5-(trifluoromethyl)pyrrolo[2,1-f][1,2,4]triazin-7-yl]-2-methoxypyridine-3-amido}-4-fluoropyrrolidine-1-carboxylate], the IC50 rises from 0.013 µM to 0.131 µM (10-fold). The first is the more potent here.

Going from Cc1cc(F)c(C(=O)N[C@@H]2CN(C(=O)C3CCC(F)(F)C3)C[C@@H]2F)cc1-c1cc(C(F)(F)F)c2c(N)ncnn12 (stereo partly drawn) [Example 392, 5-[4-amino-5-(trifluoromethyl)pyrrolo[2,1-f][1,2,4]triazin-7-yl]-N-[(3R,4S)-1-(3,3-difluorocyclopentanecarbonyl)-4-fluoropyrrolidin-3-yl]-2-fluoro-4-methylbenzamide] to Nc1ncnn2c(-c3cc(C(=O)N[C@@H]4CN(C(=O)C5CCC(F)(F)C5)C[C@@H]4F)c(F)cc3F)cc(C(F)(F)F)c12 (stereo partly drawn) [Example 789, 5-[4-amino-5-(trifluoromethyl)pyrrolo[2,1-f][1,2,4]triazin-7-yl]-N-[(3R,4S)-1-(3,3-difluorocyclopentanecarbonyl)-4-fluoropyrrolidin-3-yl]-2,4-difluorobenzamide], the IC50 falls from 0.277 µM to 0.029 µM (9.6-fold). The second is the more potent here.

First: COc1ncc(-c2cc(C(F)(F)F)c3c(N)ncnn23)cc1C(=O)NC1CCCC(c2ccccc2)C1 (stereo not drawn) [Example 1689, 5-(4-amino-5-(trifluoromethyl)pyrrolo[2,1-f][1,2,4]triazin-7-yl)-2-methoxy-N-(3-phenylcyclohexyl)nicotinamide]
Second: COc1ncc(-c2cc(C(F)(F)F)c3c(N)ncnn23)cc1C(=O)NC1CN(S(=O)(=O)c2ccccc2)C[C@@H]1F (stereo partly drawn) [Example 507, 5-[4-amino-5-(trifluoromethyl)pyrrolo[2,1-f][1,2,4]triazin-7-yl]-N-[(3R,4S)-4-fluoro-1-(pyridine-3-sulfonyl)pyrrolidin-3-yl]-2-methoxypyridine-3-carboxamide]
The IC50 of the first is 3.3-fold lower: 0.01 µM for the first, 0.033 µM for the second.

First: Cc1cc(F)c(-c2cc(C(F)(F)F)c3c(N)ncnn23)cc1C(=O)N[C@@H]1CN(C(=O)C2CC2(F)F)C[C@@H]1F (mixture of isomers) [Example 807, 5-[4-amino-5-(trifluoromethyl)pyrrolo[2,1-f][1,2,4]triazin-7-yl]-N-[(3R,4S)-1-(2,2-difluorocyclopropanecarbonyl)-4-fluoropyrrolidin-3-yl]-4-fluoro-2-methylbenzamide]
Second: Nc1ncnn2c(-c3ccc(F)c(C(=O)N[C@@H]4CN(C(=O)C5CC(F)(F)C5)C[C@@H]4F)c3)cc(C(F)(F)F)c12 [Example 254, 5-[4-amino-5-(trifluoromethyl)pyrrolo[2,1-f][1,2,4]triazin-7-yl]-N-[(3R,4S)-1-(3,3-difluorocyclobutanecarbonyl)-4-fluoropyrrolidin-3-yl]-2-fluorobenzamide]
The IC50 of the first is 2.9-fold lower: 0.013 µM for the first, 0.038 µM for the second.

First: COc1ccc(-c2cc(C(F)(F)F)c3c(N)ncnn23)cc1C(=O)N[C@@H]1CN(C(=O)C2CC(F)(F)C2)C[C@@H]1F [Example 1128, 5-[4-amino-5-(trifluoromethyl)pyrrolo[2,1-f][1,2,4]triazin-7-yl]-N-[(3R,4S)-1-(3,3-difluorocyclobutanecarbonyl)-4-fluoropyrrolidin-3-yl]-2-methoxybenzamide]
Second: Cc1ncc(-c2cc(C(F)(F)F)c3c(N)ncnn23)cc1C(=O)NC1CN(C(=O)C2CCC(F)(F)CC2)C[C@@H]1F (mixture of isomers) [Example 358, 5-[4-amino-5-(trifluoromethyl)pyrrolo [2,1-f][1,2,4]triazin-7-yl]-N-[1-(4,4-difluorocyclohexanecarbonyl)-4-fluoropyrrolidin-3-yl]-2-methyl-pyridine-3-carboxamide]
The IC50 of the first is 1.9-fold lower: 0.01 µM for the first, 0.019 µM for the second. The first is the more potent here.

COc1ncc(-c2cc(CN3CCC(F)(F)CC3)c3c(N)ncnn23)cc1C(=O)N[C@@H]1CN(C(=O)c2ncccc2Cl)C[C@@H]1F [Example 1244, 5-{4-amino-5-[(4,4-difluoropiperidin-1-yl)methyl]pyrrolo[2,1-f][1,2,4]triazin-7-yl}-N-[(3R,4S)-1-(3-chloropyridine-2-carbonyl)-4-fluoropyrrolidin-3-yl]-2-methoxypyridine-3-carboxamide] and COc1ncc(-c2cc(CN3CC(F)C3)c3c(N)ncnn23)cc1C(=O)N[C@@H]1CN(C(=O)C2CC(F)(F)C2)C[C@@H]1F [Example 1582, 5-{4-amino-5-[(3-fluoroazetidin-1-yl)methyl]pyrrolo[2,1-f][1,2,4]triazin-7-yl}-N-[(3R,4S)-1-(3,3-difluorocyclobutanecarbonyl)-4-fluoropyrrolidin-3-yl]-2-methoxypyridine-3-carboxamide] are within 1.5-fold of each other in IC50: 0.0029 µM for the first, 0.0023 µM for the second.

First: Nc1ncnn2c(-c3ccc(CF)c(C(=O)N[C@@H]4CN(C(=O)CC(F)(F)F)C[C@@H]4F)c3)cc(C(F)(F)F)c12 [Example 921, 5-[4-amino-5-(trifluoromethyl)pyrrolo[2,1-f][1,2,4]triazin-7-yl]-N-[(3R,4S)-4-fluoro-1-(3,3,3-trifluoropropanoyl)pyrrolidin-3-yl]-2-(fluoromethyl)benzamide]
Second: CC(CC(=O)N1C[C@H](F)[C@H](NC(=O)c2cc(-c3cc(C(F)(F)F)c4c(N)ncnn34)cc(F)c2Cl)C1)C(F)(F)F (mixture of isomers) [Example 634, 5-[4-amino-5-(trifluoromethyl)pyrrolo[2,1-f][1,2,4]triazin-7-yl]-2-chloro-3-fluoro-N-[(3R,4S)-4-fluoro-1-(4,4,4-trifluoro-3-methylbutanoyl)pyrrolidin-3-yl]benzamide]
The IC50 of the first is 5.7-fold higher: 0.016 µM for the first, 0.0028 µM for the second.

Going from Cc1ncc(-c2cc(C(F)(F)F)c3c(N)ncnn23)cc1C(=O)N[C@@H]1CN(C(=O)[C@H](O)C(F)(F)F)C[C@@H]1F [Example 370, 5-[4-amino-5-(trifluoromethyl)pyrrolo [2,1-f][1,2,4]triazin-7-yl]-N-[(3R,4S)-4-fluoro-1-[(2S)-3,3,3-trifluoro-2-hydroxy-propanoyl]pyrrolidin-3-yl]-2-methyl-pyridine-3-carboxamide] to Cc1ncc(-c2cc(C(F)(F)F)c3c(N)ncnn23)cc1C(=O)N[C@@H]1CN(C(=O)[C@@](C)(O)C(F)(F)F)C[C@@H]1F [Example 366, 5-[4-amino-5-(trifluoromethyl)pyrrolo [2,1-f][1,2,4]triazin-7-yl]-N-[(3R,4S)-4-fluoro-1-[(2R)-3,3,3-trifluoro-2-hydroxy-2-methylpropanoyl]pyrrolidin-3-yl]-2-methylpyridine-3-carboxamide], the IC50 falls from 0.13 µM to 0.018 µM (7.2-fold). The second is the more potent here.

First: Cc1cc(-c2cc(C(F)(F)F)c3c(N)ncnn23)cc(C(=O)N[C@@H]2CN(C(=O)CC(O)(C(F)(F)F)C(F)(F)F)C[C@@H]2F)c1Cl [Example 702, 5-[4-amino-5-(trifluoromethyl)pyrrolo[2,1-f][1,2,4]triazin-7-yl]-2-chloro-N-[(3R,4S)-4-fluoro-1-[4,4,4-trifluoro-3-hydroxy-3-(trifluoromethyl)butanoyl]pyrrolidin-3-yl]-3-methylbenzamide]
Second: CCC(O)(C(=O)N1C[C@H](F)[C@H](NC(=O)c2cc(-c3cc(C(F)(F)F)c4c(N)ncnn34)ccc2OC(F)(F)F)C1)C(F)(F)F (stereo partly drawn) [Example 1051, 5-[4-amino-5-(trifluoromethyl)pyrrolo[2,1-f][1,2,4]triazin-7-yl]-N-[(3R,4S)-4-fluoro-1-[2-hydroxy-2-(trifluoromethyl)butanoyl]pyrrolidin-3-yl]-2-(trifluoromethoxy)benzamide]
The IC50 of the first is 6.9-fold lower: 0.0051 µM for the first, 0.035 µM for the second.

Compared with COc1ncc(-c2cc(C(F)(F)F)c3c(N)ncnn23)cc1C(=O)N[C@@H]1CN(C(=O)C2(O)CC2)C[C@@H]1F [Example 320, 5-[4-amino-5-(trifluoromethyl)pyrrolo[2,1-f][1,2,4]triazin-7-yl]-N-[(3R,4S)-4-fluoro-1-(1-hydroxy-cyclopropanecarbonyl)pyrrolidin-3-yl]-2-methoxypyridine-3-carboxamide], COc1ncc(-c2cc(CN3CC(F)(F)C3)c3c(N)ncnn23)cc1C(=O)N[C@@H]1CN(C(=O)[C@@H]2CC2(F)F)C[C@@H]1F [Example 1557, 5-{4-amino-5-[(3,3-difluoroazetidin-1-yl)methyl]pyrrolo[2,1-f][1,2,4]triazin-7-yl}-N-[(3R,4S)-1-[(1S)-2,2-difluorocyclopropanecarbonyl]-4-fluoropyrrolidin-3-yl]-2-methoxypyridine-3-carboxamide] is 6.8-fold lower in IC50: 0.123 µM for the first, 0.018 µM for the second.

Going from COc1ncc(-c2cc(CN)c3c(N)ncnn23)cc1C(=O)Nc1cnn(Cc2ccccc2)c1 [Example 53, 5-(4-amino-5-(aminomethyl)pyrrolo[2,1-f][1,2,4]triazin-7-yl)-N-(1-benzyl-1H-pyrazol-4-yl)-2-methoxynicotinamide] to COc1ncc(-c2c(F)cc3c(N)ncnn23)cc1C(=O)NCCC(C)c1ccccc1 (stereo not drawn) [Example 61, 5-(4-amino-6-fluoropyrrolo[2,1-f][1,2,4]triazin-7-yl)-2-methoxy-N-(3-phenylbutyl)nicotinamide], the IC50 rises from 0.0044 µM to 0.03 µM (6.8-fold).

COc1ncc(-c2ccc3c(N)ncnn23)cc1C(=O)N[C@@H]1CN(C(=O)C2CC2(F)F)C[C@@H]1F (stereo partly drawn) [Example 156, 5-{4-aminopyrrolo[2,1-f][1,2,4]triazin-7-yl}-N-[(3R,4S)-1-(2,2-difluorocyclopropanecarbonyl)-4-fluoropyrrolidin-3-yl]-2-methoxypyridine-3-carboxamide] and Cc1cc(F)c(C(=O)N[C@@H]2CN(C(=O)[C@@](C)(O)C(F)(F)F)C[C@@H]2F)cc1-c1cc(C(F)(F)F)c2c(N)ncnn12 [Example 394, 5-[4-amino-5-(trifluoromethyl)pyrrolo[2,1-f][1,2,4]triazin-7-yl]-2-fluoro-N-[(3R,4S)-4-fluoro-1-[(2R)-3,3,3-trifluoro-2-hydroxy-2-methylpropanoyl]pyrrolidin-3-yl]-4-methyl-benzamide] are within 1.5-fold of each other in IC50: 0.1 µM for the first, 0.076 µM for the second.

From patent US11618753B2 (priority 2018, dated 2023)
